This is an account of results in ChEMBL document CHEMBL4888484, “Replenishing the malaria drug discovery pipeline: Screening and hit evaluation of the MMV Hit Generation Library 1 (HGL1) against asexual blood stage Plasmodium falciparum ,using a nano luciferase reporter read-out” (2022).

The term % Inhibition denotes the change of the read-out against control, counted positive when it falls.

Screen size: about 150,000 compounds; about 540 (0.36%) showed an effect of 50% or more. The list shows a part of the results.

The assay concerns Plasmodium falciparum. Put plainly: Primary screen in NF54 nanoGlo assay, in single point, at 2uM, 72h; a lower Z score goes with more inhibition. The format is functional, Erythrocyte. As to conditions: timepoint 72 hour.
With `CCc1ccc(S(=O)(=O)Nc2ccc3[nH]c(=O)sc3c2)cc1`, the “% Inhibition” value is recorded as -4% and the Z score turned out to be 0.55.
For `Cc1cc(N2CCC(NC(=O)c3ccnc(-c4ccccc4)c3N)CC2)nc(C)n1` the same measures were -10% and 1.26.
The matching figures for `O=C(NS(=O)(=O)c1cccnc1)C1=CCCCCC1`: -7% and 0.82.
For `c1c(CNc2nc(C3CC3)nc3c2CCC3)nnn1C1CCC1` the same measures were -3% and 0.55.
Take `O=C(COCc1ccccc1)N1[C@H]2CCNC[C@@H]1CC2`: the “% Inhibition” value was -10% and the Z score is 1.12.
As to `O=C(O)c1ccc(NCc2c[nH]nc2-c2cccs2)cc1`, the “% Inhibition” value was -14% and the Z score worked out at 2.22.
The matching figures for `Cc1cc(C(=O)N(Cc2cccn2C)C2CC2)c(C)o1`: -7% and 1.4.
As for `COc1ccc(NC(=O)COc2cccc3c2[C@@H](O)CC(C)(C)O3)cc1`, the “% Inhibition” value worked out at 5% and the Z score is given as -0.75.
The matching figures for `C=CCNC(=O)C[C@@H]1CCN(C(=O)NC(C)C)C[C@@H]1CC`: 5% and -0.75.
The matching figures for `O=C(O)c1cccc(CN2CCC[C@H](n3ccnn3)C2)c1Cl`: -2% and 0.44.
As to `Nc1nnc(CCNC(=O)c2cccc(Cl)c2)s1`, the “% Inhibition” value was determined as 6% and the Z score is given as -0.81.
Regarding `COc1cccc(-c2ccc(N3CCCN(C(=O)CN(Cc4ccccc4)C(=O)c4ccc5c(c4)OCO5)CC3)nn2)c1`, the “% Inhibition” value is reported as 19% and the Z score was -1.85.
`O=C(N[C@H]1CO[C@H]2[C@@H]1OC[C@@H]2n1nnnc1-c1ccc2c(c1)OCO2)C1CCCCC1`: the “% Inhibition” value is listed as -3% and the Z score is 0.4.
The matching figures for `COc1ccc(N(C)S(=O)(=O)c2ccc3c(c2)C(=O)Nc2cc(Cl)ccc2O3)cc1`: -10% and 1.38.
For `CC(=O)Nc1cccc(NC(=O)Cn2c(=O)n(CCc3cccs3)c(=O)c3ccccc32)c1`, the “% Inhibition” value amounted to 36% and the Z score is reported as -0.77.
The matching figures for `CCN(CCCC(=O)c1ccc(F)cc1)CCc1ccccc1`: 33% and -4.3.
For `C[C@H](NC(=O)Nc1ccnc2ccnn12)C(F)(F)F` the same measures were -9% and 1.18.
The matching figures for `CN(Cc1cccc(C#N)c1)Cn1cc(Br)cn1`: -6% and 0.93.
As to `COCc1ncc(-c2cn([C@@H](C)Cc3ccncc3)nn2)cn1`, the “% Inhibition” value was found to be 3% and the Z score is -0.43.
For the compound `O=C(Nc1ccc(N2CCCCC2)cc1)c1ccccc1NCc1cccnc1`, the “% Inhibition” value was -13% and the Z score is listed as 1.45.
Regarding `CC(C)c1csc(C(=O)N2CCn3nc(CO)cc3C2)n1`, the “% Inhibition” value is on record as -6% and the Z score is reported as 1.15.
On to `CN(Cc1cc2cc(F)ccc2[nH]1)Cc1ccnn1C`, for which the “% Inhibition” value is recorded as -9% and the Z score worked out at 1.38.
For `N#C[C@@]1(c2ccccc2OCc2ccccc2)CCC(=O)N1Cc1ccccc1` the same measures were -10% and 1.37.
